{
  "source": "paper PMC4336329",
  "about": "(PLoS ONE, 2015)",
  "note": "Screen size: about 310,000 compounds; about 2,200 (0.71%) showed an effect of 50% or more. Effects have a minus sign here. The list shows a part of the results.",
  "data": [
    {"molecular_target": "human ether-à-go-go-related gene (hERG) potassium channel (human, UniProt Q12809)", "sequence (Q12809 whole entry, looked up)": "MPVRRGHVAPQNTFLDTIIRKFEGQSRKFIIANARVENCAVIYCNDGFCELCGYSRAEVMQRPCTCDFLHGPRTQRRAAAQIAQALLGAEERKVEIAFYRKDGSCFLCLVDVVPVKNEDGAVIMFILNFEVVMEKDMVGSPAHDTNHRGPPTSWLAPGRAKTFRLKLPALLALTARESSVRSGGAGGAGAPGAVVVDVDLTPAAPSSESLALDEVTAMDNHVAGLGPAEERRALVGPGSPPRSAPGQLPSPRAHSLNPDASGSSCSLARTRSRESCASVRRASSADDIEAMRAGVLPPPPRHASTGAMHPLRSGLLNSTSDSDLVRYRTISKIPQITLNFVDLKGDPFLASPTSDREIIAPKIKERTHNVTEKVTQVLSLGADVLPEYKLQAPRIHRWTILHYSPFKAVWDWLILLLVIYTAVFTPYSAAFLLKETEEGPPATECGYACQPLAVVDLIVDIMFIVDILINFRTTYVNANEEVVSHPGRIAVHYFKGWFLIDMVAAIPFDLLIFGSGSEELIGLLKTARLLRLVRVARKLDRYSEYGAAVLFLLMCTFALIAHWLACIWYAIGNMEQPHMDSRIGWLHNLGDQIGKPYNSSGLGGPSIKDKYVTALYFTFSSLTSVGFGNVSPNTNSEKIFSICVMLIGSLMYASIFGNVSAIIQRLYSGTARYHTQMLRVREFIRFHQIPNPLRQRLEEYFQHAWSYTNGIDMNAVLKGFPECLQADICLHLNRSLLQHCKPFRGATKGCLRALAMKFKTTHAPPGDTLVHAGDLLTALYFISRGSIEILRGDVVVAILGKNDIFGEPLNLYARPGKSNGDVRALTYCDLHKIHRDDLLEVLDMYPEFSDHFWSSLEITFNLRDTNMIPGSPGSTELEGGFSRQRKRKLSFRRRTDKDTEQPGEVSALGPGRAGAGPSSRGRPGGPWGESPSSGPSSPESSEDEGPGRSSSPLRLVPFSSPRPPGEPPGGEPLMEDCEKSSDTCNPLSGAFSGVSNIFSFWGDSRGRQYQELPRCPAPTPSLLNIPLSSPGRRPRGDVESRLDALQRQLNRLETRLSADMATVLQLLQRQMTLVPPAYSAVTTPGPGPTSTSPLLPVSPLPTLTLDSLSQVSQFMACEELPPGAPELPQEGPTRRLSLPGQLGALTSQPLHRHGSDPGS", "assay": "primary screen, population patch clamp on CHO cells stably expressing hERG", "units": {"hERG current change (%, negative = inhibition) at 1uM": "%"}, "values": [
      {"smiles": "O=C(c1ccccc1)c1ccc2cc(O)ccc2c1", "hERG current change (%, negative = inhibition) at 1uM": 9.95},
      {"smiles": "CCN1CCN(c2nn3c(=O)c4ccccc4nc3c3ccccc23)CC1", "hERG current change (%, negative = inhibition) at 1uM": -71.5},
      {"smiles": "CC1(c2nnc(-c3ccncc3)o2)CC(c2c(Cl)cccc2Cl)=NO1", "note": "(stereo not drawn)", "hERG current change (%, negative = inhibition) at 1uM": -42.9},
      {"smiles": "CCOc1ccc(-n2c(C)cc(/C=N/Nc3nc(C)cc(=O)[nH]3)c2C)cc1", "hERG current change (%, negative = inhibition) at 1uM": 7.31},
      {"smiles": "CCn1c(SCC(=O)N(C)C)nc2cc(S(=O)(=O)N3CCOCC3)ccc21", "hERG current change (%, negative = inhibition) at 1uM": 1.16},
      {"smiles": "O=C1Nc2ccc(Br)cc2C(c2ccccc2)=NC1O", "note": "(stereo not drawn)", "hERG current change (%, negative = inhibition) at 1uM": 10.6},
      {"smiles": "CCCc1nnc(SCC(=O)N2CCCC2)n1CC1CCCO1", "note": "(stereo not drawn)", "hERG current change (%, negative = inhibition) at 1uM": 2.42},
      {"smiles": "COC(=O)Cn1c(C)nc2c(sc3nc(C)cc(C)c32)c1=O", "hERG current change (%, negative = inhibition) at 1uM": 0.966},
      {"smiles": "CCC/C(O)=C1\\C(=O)CCCC1=NC(C)C(=O)O", "note": "(stereo not drawn)", "hERG current change (%, negative = inhibition) at 1uM": 6.45},
      {"smiles": "COc1ccc(CC(=O)OC(C)C(=O)NCc2ccc3c(c2)OCO3)cc1OC", "note": "(stereo not drawn)", "hERG current change (%, negative = inhibition) at 1uM": 14.8},
      {"smiles": "COC(=O)C1=C(C)N(C)C(C)=C(C(=O)OC)C1c1ccsc1", "hERG current change (%, negative = inhibition) at 1uM": 5.98},
      {"smiles": "CN1CCc2[nH]c3ccc(C(=O)NN)cc3c2C1", "hERG current change (%, negative = inhibition) at 1uM": 3.5},
      {"smiles": "Cc1cc(C)c(C)c(Cn2c(CO)nc3ccccc32)c1C", "hERG current change (%, negative = inhibition) at 1uM": -5.02},
      {"smiles": "CCC(c1nnnn1Cc1ccc(OC)cc1)N1CCN(C(=O)c2ccco2)CC1.Cl", "note": "(stereo not drawn)", "hERG current change (%, negative = inhibition) at 1uM": -13.8},
      {"smiles": "O=C(NCCNCc1ccc(F)cc1)c1ccco1.O=C(O)C(=O)O", "hERG current change (%, negative = inhibition) at 1uM": 18.4},
      {"smiles": "O=C1CC(NS(=O)(=O)c2cc(F)ccc2F)CN1c1cccc(F)c1", "note": "(stereo not drawn)", "hERG current change (%, negative = inhibition) at 1uM": 12.6},
      {"smiles": "CC1CCN(S(=O)(=O)c2ccc(C(=O)N3CCCC3C(=O)O)cc2)CC1", "note": "(stereo not drawn)", "hERG current change (%, negative = inhibition) at 1uM": 10.8},
      {"smiles": "CC1Cc2ccccc2N1C(=O)Cn1c(=O)oc2cc(S(=O)(=O)N3CCCCC3)ccc21", "note": "(stereo not drawn)", "hERG current change (%, negative = inhibition) at 1uM": 14.4},
      {"smiles": "CN(C)c1ccc(/C=C2/SC(=O)N(CCN=C3NS(=O)(=O)c4ccccc43)C2=O)cc1", "hERG current change (%, negative = inhibition) at 1uM": 2.06},
      {"smiles": "CN1CCN(S(=O)(=O)c2cccc(C(=O)Nc3cc(C(F)(F)F)ccc3N3CCCCC3)c2)CC1", "hERG current change (%, negative = inhibition) at 1uM": 10},
      {"smiles": "Cc1cc(OC(=O)c2cccs2)ccc1C(C)C", "hERG current change (%, negative = inhibition) at 1uM": 15.8},
      {"smiles": "O=C(NNS(=O)(=O)c1ccccc1[N+](=O)[O-])c1ccccc1[N+](=O)[O-]", "hERG current change (%, negative = inhibition) at 1uM": 24.6},
      {"smiles": "COc1ccc(/C=C2\\SC(=S)N(CCC(=O)N(CCO)Cc3ccccc3)C2=O)cc1OC", "hERG current change (%, negative = inhibition) at 1uM": 10.6},
      {"smiles": "COc1ccc(CCC(=O)N2CCN(S(=O)(=O)c3ccc4ccccc4c3)CC2)cc1", "hERG current change (%, negative = inhibition) at 1uM": 5.35},
      {"smiles": "CCOC(=O)C1(Cc2ccccc2C)CCCN(C(=O)c2ccccn2)C1", "note": "(stereo not drawn)", "hERG current change (%, negative = inhibition) at 1uM": 9.05},
      {"smiles": "CCOc1ccc(C(=O)Nc2ccccc2NC(C)=O)cc1OCC", "hERG current change (%, negative = inhibition) at 1uM": 15.4},
      {"smiles": "C=CCNc1sc(C(=O)c2ccccc2)c(N)c1-c1nc2ccccc2s1", "hERG current change (%, negative = inhibition) at 1uM": 8.33},
      {"smiles": "COc1ccc(C2C3=C(CC(C)(C)CC3=O)Nc3c2c(=O)[nH]c(=O)n3Cc2ccccc2)cc1", "note": "(stereo not drawn)", "hERG current change (%, negative = inhibition) at 1uM": 10.5},
      {"smiles": "CC(C)CCC(CC(C)O)c1n[nH]c(=S)n1-c1ccccc1", "note": "(stereo not drawn)", "hERG current change (%, negative = inhibition) at 1uM": 11.9},
      {"smiles": "O=c1cc(N2CCc3ccccc32)[nH]c(=O)n1-c1ccc(Cl)cc1", "hERG current change (%, negative = inhibition) at 1uM": 14},
      {"smiles": "CC(C)NC(=O)c1ccc(-c2cccc(C(F)(F)F)c2)o1", "hERG current change (%, negative = inhibition) at 1uM": 5.29},
      {"smiles": "Cc1cc(C)c(S(=O)(=O)N2CCN(c3ccc([N+](=O)[O-])c(NCc4ccco4)c3)CC2)c(C)c1", "hERG current change (%, negative = inhibition) at 1uM": 14.3},
      {"smiles": "CCC1SC2=NC(C)=C(C(=O)OC)C(c3ccc(C(=O)OC)cc3)N2C1=O", "note": "(stereo not drawn)", "hERG current change (%, negative = inhibition) at 1uM": 8.66},
      {"smiles": "Cc1ccc(C)c(C(=O)COC(=O)CCCC(=O)Nc2cc(C(F)(F)F)ccc2Cl)c1", "hERG current change (%, negative = inhibition) at 1uM": 16.3},
      {"smiles": "Cc1ccc(NC(=O)c2cccc(OCc3c(C)noc3C)c2)cc1S(=O)(=O)Nc1ccccc1Cl", "hERG current change (%, negative = inhibition) at 1uM": 1.63},
      {"smiles": "COc1ccc(CC(=O)NCc2n[nH]c(=S)n2-c2ccccc2)cc1", "hERG current change (%, negative = inhibition) at 1uM": 10.4},
      {"smiles": "COc1cc(/C=N/NC(=O)CNC(=O)/C=C/c2ccco2)cc(OC)c1OC", "hERG current change (%, negative = inhibition) at 1uM": 17.3},
      {"smiles": "Cc1ccc2c(ccc[n+]2CC(=O)c2ccccc2)c1.[Br-]", "hERG current change (%, negative = inhibition) at 1uM": 2.12},
      {"smiles": "CCN1CCN(Cc2nnnn2C(C)(C)C)CC1", "hERG current change (%, negative = inhibition) at 1uM": 8.31},
      {"smiles": "CCCOP(=O)(OCCC)C(Nc1cccc(C(F)(F)F)c1)c1ccc(C)cc1", "note": "(stereo not drawn)", "hERG current change (%, negative = inhibition) at 1uM": 21},
      {"smiles": "C=CCN(c1ccccc1)S(=O)(=O)c1cccc(C(=O)NCc2ccncc2)c1", "hERG current change (%, negative = inhibition) at 1uM": 9.97},
      {"smiles": "Cc1ccc(S(=O)(=O)c2cc3c(=O)n4ccccc4nc3n(Cc3ccco3)c2=N)cc1", "hERG current change (%, negative = inhibition) at 1uM": -0.218},
      {"smiles": "CC1CCN(C(=O)c2ccc(S(=O)(=O)NCc3ccco3)cc2)CC1", "hERG current change (%, negative = inhibition) at 1uM": 18.1},
      {"smiles": "COc1cc(OC)cc(C(=O)Nn2cc(C(=O)Nc3ccc(F)cc3F)c3ccccc3c2=O)c1", "hERG current change (%, negative = inhibition) at 1uM": 7.39},
      {"smiles": "COC(=O)c1c(NC(=O)C2CC2)sc(C(=O)Nc2ccccc2)c1C", "hERG current change (%, negative = inhibition) at 1uM": 7.6},
      {"smiles": "COCCNC(=O)CS(=O)(=O)Cc1nc(-c2ccc(C)cc2)oc1C", "hERG current change (%, negative = inhibition) at 1uM": 1.89},
      {"smiles": "Cc1ccc(CNC(=O)Cn2nnc(C(=O)Nc3cc(C)ccc3C)c2N)cc1", "hERG current change (%, negative = inhibition) at 1uM": 10.1},
      {"smiles": "N#CC(c1ccc(Cl)cc1)(c1ncc(C(F)(F)F)cc1Cl)N1CCOCC1", "note": "(stereo not drawn)", "hERG current change (%, negative = inhibition) at 1uM": -5.04},
      {"smiles": "OCC1(CCOc2ccccc2)CCN(Cc2ccccc2C(F)(F)F)CC1", "hERG current change (%, negative = inhibition) at 1uM": 3.9},
      {"smiles": "CN(c1ccc(OCc2nnc(-c3ccccc3)o2)cc1)S(=O)(=O)c1ccccc1", "hERG current change (%, negative = inhibition) at 1uM": 0.492},
      {"smiles": "O=C(O)CCCC(=O)N1CCc2cc(S(=O)(=O)NCc3ccccc3)ccc21", "hERG current change (%, negative = inhibition) at 1uM": 9.22},
      {"smiles": "CC1CCN(C(=O)CCCC(=O)N2CCC(C)CC2)CC1", "hERG current change (%, negative = inhibition) at 1uM": 2.15},
      {"smiles": "Cc1cc(C)n2nc(C(=O)OCC(=O)N(C)CC(=O)Nc3ccccc3Cl)nc2n1", "hERG current change (%, negative = inhibition) at 1uM": 12.9},
      {"smiles": "CCOC(=O)CNC(=O)CSc1nnc(NC(=O)c2ccc3c(c2)OCO3)s1", "hERG current change (%, negative = inhibition) at 1uM": 3.77}
    ]}
  ]
}
